# Results reported in the supplement of paper PMC6135742.
# Counter-ions that a name gives are not always drawn. ± gives the standard deviation of the averaged measurements. Whole data set: some 2,600 compounds, median “MBP+ mature oligodendrocyte number relative to DMSO vehicle control” near -0.34, cut for the highest 2% near 13. The list shows a part of the results.
# Test system: jimpy (Plp1 jimpy) mouse iPSC-derived oligodendrocyte progenitor cells
# Assay: MBP+ mature oligodendrocyte number relative to DMSO vehicle control (SDs above negative control mean); higher = more surviving jimpy oligodendrocytes (rescue)
# Details: 10 µM; 3 days
# 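Note: 10 µM single dose with 3-day oligodendrocyte differentiation.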
row,Compound,MBP+ mature oligodendrocyte number
1,Cn1ccc2cc(NC(=O)Nc3cccnc3)ccc21,-0.158
2,CC(=O)[C@]1(O)Cc2c(O)c3c(c(O)c2[C@@H](O[C@H]2C[C@H](N)[C@H](O)[C@H](C)O2)C1)C(=O)c1ccccc1C3=O [Idarubicin HCl],-1.46
3,CC(=O)[C@]1(O)Cc2c(O)c3c(c(O)c2[C@@H](O[C@H]2C[C@H](N)[C@H](O)[C@H](C)O2)C1)C(=O)c1ccccc1C3=O [Idarubicin],3.22
4,O=S(=O)(O)NC1CCCCC1 [Cyclamic  acid],-1.25
5,COc1ccc([C@]2(C#N)CC[C@@H](C(=O)O)CC2)cc1OC1CCCC1 [Cilomilast],-0.676
6,COCC[n+]1c2c(n(Cc3cnccn3)c1C)C(=O)c1ccccc1C2=O [YM155 (Sepantronium Bromide)],< -6.7
7,O=C(NCCO)c1cccc(-c2cc(Nc3ccc(OC(F)(F)F)cc3)ncn2)c1,-0.394
8,Nc1ncnc2c1c(-c1ccc(Oc3ccccc3)cc1)cn2C1CCCC1,-0.91
9,O=c1[nH]c(=O)n(C2CCCO2)cc1F (configuration not stated) [Tegafur],< -3.85
10,Cc1cc2c(F)c(Oc3ncnn4cc(OC[C@@H](C)OC(=O)[C@H](C)N)c(C)c34)ccc2[nH]1,-1.9
11,CCOC(=O)Nc1cc(-c2ccc(C)c(NS(C)(=O)=O)c2)nn2c(C)nnc12 [Bromosporine],-6.01
12,Nc1nc2ccc(Cl)cc2c2nc(-c3ccco3)nn12,2.65
13,CCC(C)N(C)C(=O)c1cc2ccccc2c(-c2ccccc2Cl)n1 (configuration not stated),-0.236
14,Nc1nc2c(nc(Br)n2C2OC3COP(=O)(O)O[C@@H]3C2O)c(=O)[nH]1 (some centres not stated) [8-Bromo-cGMP sodium],-1.81
15,Nc1nc2n[nH]nc2c(=O)[nH]1 [Azaguanine-8],2.94
16,N[C@H](C(=O)O)[C@H](O)c1ccc(O)c(O)c1,0.108
17,CN(C)c1nc(N(C)C)nc(N(C)C)n1 [Altretamine],0.885 ± 0.75
18,COc1cc2c(cc1-c1c(C)noc1C)ncc1[nH]c(=O)n([C@H](C)c3ccccn3)c12,< -6.01
19,COc1cc2c(Oc3ccc4[nH]c(C)cc4c3F)ncnc2cc1OCCCN1CCCC1 [Cediranib (AZD2171)],< -6.7
20,CC(=O)O[C@]1(C(C)=O)CC[C@H]2[C@@H]3C[C@H](C)C4=CC(=O)CC[C@]4(C)[C@H]3CC[C@@]21C [Medroxyprogesterone acetate],16.5
21,O=C(O)c1cc(-c2ccccc2)nc2ccccc12 [Cinchophen],2.43
22,C[C@H]1C[C@@H]2[C@H]([C@@H](O)C[C@@]3(C)[C@H]2CC[C@]3(O)C(=O)CO)[C@@]2(C)C=CC(=O)C=C12 [Methylprednisolone],6.01
